Source: the supplement of paper PMC6531468
This is one part of the list. Read counts after selection give these values, which scatter widely. Scores sum up all selected molecules that hold the word; the word was not tested alone.

Columns and labels:
Assay in all cases: 6-mer SELEX enrichment z-score vs GST control; IMP3 is the RNA-binding protein IGF2BP3; higher = more enriched by binding
[1] = tested on: IMP3 KH1-4; conditions: construct: KH1-4 (164-579); SELEX round: R4
Experimental: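 SELEX-seq with GST-tagged IMP3 KH1-4 (Pro164-Lys579) and an N40 RNA pool, round 4. 6-mer z-score of sequence-tag enrichment normalised to the corresponding GST SELEX round; RNA k-mers written as DNA (T for U).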

[2] = tested on: IMP3 RRM1-2; conditions: construct: RRM1-2 (1-163); SELEX round: R2
Experimental: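 SELEX-seq with GST-tagged IMP3 RRM1-2 (Met1-Asn163) and an N40 RNA pool, round 2. 6-mer enrichment z-score normalised to GST SELEX. RNA written as DNA (T = U).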

[3] = target: IMP3 full-length (UniProt O00425); conditions: construct: FL IMP3 (1-579); SELEX round: R4
Experimental: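 SELEX-seq with GST-tagged full-length IMP3 and an N40 RNA pool, round 4. Each 6-mer is scored as an enrichment z-score of sequence tags containing it, normalised to the matching GST SELEX round. RNA written as DNA (T = U).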

[4] = tested on: IMP3 KH1-2; conditions: construct: KH1-2 (164-376); SELEX round: R4
Experimental: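 SELEX-seq with GST-tagged IMP3 KH1-2 (Pro164-Phe376) and an N40 RNA pool, round 4 (stringent 300/600 mM KCl washes). 6-mer z-score of sequence-tag enrichment normalised to the corresponding GST SELEX round; RNA k-mers written as DNA (T for U).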

[5] = tested on: IMP3 KH3-4; conditions: construct: KH3-4 (377-579); SELEX round: R4
Experimental: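 SELEX-seq with GST-tagged IMP3 KH3-4 (Pro377-Lys579) and an N40 RNA pool, round 4. 6-mer z-score of sequence-tag enrichment normalised to the corresponding GST SELEX round; RNA k-mers written as DNA (T for U).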

IMP3 KH3-4, sequence (chain, as listed by the source): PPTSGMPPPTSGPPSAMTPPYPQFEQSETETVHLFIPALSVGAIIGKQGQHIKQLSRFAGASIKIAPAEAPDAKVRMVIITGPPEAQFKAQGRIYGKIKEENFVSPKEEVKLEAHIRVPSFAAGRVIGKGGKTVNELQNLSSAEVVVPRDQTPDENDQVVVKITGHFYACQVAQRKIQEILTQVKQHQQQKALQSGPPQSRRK
UniProt O00425, sequence (O00425 whole entry): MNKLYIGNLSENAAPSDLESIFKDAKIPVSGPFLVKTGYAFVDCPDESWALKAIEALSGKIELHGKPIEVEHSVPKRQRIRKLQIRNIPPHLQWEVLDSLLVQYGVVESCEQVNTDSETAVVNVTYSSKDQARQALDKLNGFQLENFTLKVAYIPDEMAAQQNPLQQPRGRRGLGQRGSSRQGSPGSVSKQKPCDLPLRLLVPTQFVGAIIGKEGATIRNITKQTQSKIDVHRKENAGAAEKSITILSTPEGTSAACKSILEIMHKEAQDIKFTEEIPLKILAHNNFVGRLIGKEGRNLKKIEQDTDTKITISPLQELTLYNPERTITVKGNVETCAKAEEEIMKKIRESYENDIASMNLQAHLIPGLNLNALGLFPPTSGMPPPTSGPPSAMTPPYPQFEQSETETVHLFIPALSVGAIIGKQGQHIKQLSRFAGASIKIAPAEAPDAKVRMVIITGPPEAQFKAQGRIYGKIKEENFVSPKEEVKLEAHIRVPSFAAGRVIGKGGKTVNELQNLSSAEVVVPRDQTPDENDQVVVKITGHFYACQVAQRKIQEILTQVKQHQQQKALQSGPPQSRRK
IMP3 KH1-4, sequence (chain, as listed by the source): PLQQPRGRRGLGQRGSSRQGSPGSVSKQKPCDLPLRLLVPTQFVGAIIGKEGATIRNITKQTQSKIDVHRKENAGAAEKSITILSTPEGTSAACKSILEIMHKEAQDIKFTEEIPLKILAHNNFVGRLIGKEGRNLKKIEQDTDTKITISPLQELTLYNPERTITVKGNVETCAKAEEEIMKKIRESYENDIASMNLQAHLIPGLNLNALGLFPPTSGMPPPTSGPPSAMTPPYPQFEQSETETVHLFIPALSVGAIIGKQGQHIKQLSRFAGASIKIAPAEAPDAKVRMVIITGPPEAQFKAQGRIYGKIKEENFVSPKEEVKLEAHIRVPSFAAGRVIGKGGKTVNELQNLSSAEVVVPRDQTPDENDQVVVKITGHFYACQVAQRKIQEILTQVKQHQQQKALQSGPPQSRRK
IMP3 KH1-2, sequence (chain, as listed by the source): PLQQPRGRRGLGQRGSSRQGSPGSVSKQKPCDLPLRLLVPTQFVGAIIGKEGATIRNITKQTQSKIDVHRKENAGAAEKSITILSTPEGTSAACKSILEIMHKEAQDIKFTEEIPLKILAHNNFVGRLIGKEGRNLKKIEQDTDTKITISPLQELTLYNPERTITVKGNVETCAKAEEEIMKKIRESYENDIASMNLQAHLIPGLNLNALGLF
IMP3 RRM1-2, sequence (chain, as listed by the source): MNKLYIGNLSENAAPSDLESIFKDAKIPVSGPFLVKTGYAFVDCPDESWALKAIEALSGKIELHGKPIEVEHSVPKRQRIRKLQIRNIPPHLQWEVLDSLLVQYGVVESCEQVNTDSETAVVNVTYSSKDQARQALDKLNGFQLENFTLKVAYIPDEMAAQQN

Sequence | 6-mer SELEX enrichment z-score [1] | 6-mer SELEX enrichment z-score [2] | 6-mer SELEX enrichment z-score [3] | 6-mer SELEX enrichment z-score [4] | 6-mer SELEX enrichment z-score [5]
TTCAGC | -0.066 | 0.745 | 0.613 | -0.026 | -0.1
CTGAAA | -0.799 | -1.34 | -1.42 | -0.677 | 
CCCTAT | 0.02 | -0.05 | -0.406 | -0.068 | 
CTCAGA | -0.666 | 0.33 | -0.045 | -0.583 | 
GAGGGG | 1.37 | -0.102 | 0.477 | 1.87 | 
ATCCAG | -0.34 | 0.127 | -0.177 | -0.421 | -0.608
AAGCAT | -0.189 | 0.833 | 0.326 | -0.369 | 
CACAGC | -0.042 | 1.58 | 1.61 | 0.151 | 
CGGCGT | -0.736 | 0.301 | 0.39 | -0.617 | -0.457
AGTGCA | 0.449 | 0.236 | 0.641 | 0.198 | 
ACTTGC | -0.357 | 0.111 | -0.389 | -0.411 | 
AGTATT | 0.149 | 0.145 | -0.054 | 0.073 | 
GCTGCG | -0.218 | 0.202 | 0.094 | -0.12 | 
GCGGTT | -0.132 | 0.353 | 0.148 | -0.018 | 
ATTCCA | 0.883 | 0.437 | 0.162 | 0.822 | 
AACATT | 1.83 | 1.79 | 1.82 | 1.83 | 2.11
GAGCCA | -1.19 | -0.477 | 0.013 | -1.09 | 
GCGCCA | -0.414 | -0.033 | 0.663 | -0.364 | 
TGTTAG | 0.206 | 0.289 | -0.035 | 0.062 | 
GACATG | 0.764 | -0.119 | 0.55 | 0.421 | 
AGCGTC | -0.862 | 0.446 | 0.356 | -0.669 | 
CGGTGA | 0.013 | -0.328 | 0.221 | -0.012 | 
TCCCGC | -0.615 | -0.184 | -0.213 | -0.435 | 
AGTTCT | 0.05 | 0.333 | 0.044 | 0.032 | 0.135
CTTTTG | 0.098 | 0.25 | -0.098 | 0.094 | 0.194
GACCCG | -1.68 | -1.08 | -1.09 | -1.51 | 
GTCTGA | -0.444 | -0.04 | -0.166 | -0.427 | 
AGGTTA | 0.187 | 0.232 | 0.016 | 0.066 | 0.296
CGAAGT | -1.04 | -0.564 | -0.78 | -1.02 | -0.926
